{"source": "PubChem BioAssay AID485341", "about": "(National Center for Advancing Translational Sciences (NCATS), 2010)", "note": "Hit rate of the full screen: of about 330,000 compounds, about 1,700 (0.52%) were called active. Inconclusive means that the source gave no clear call. Such entries were picked first, then a sample of the others. Calls come from the whole dose curve; as a rule, active = well fitted inhibition curve with a large enough effect; inconclusive = small, poorly fitted or top-dose-only effect; inactive = no such curve, though single readings can be large or run the other way. Potencies of inconclusive entries are doubtful fits and often do not repeat. Potency is the fitted concentration of half-maximal effect; tags give direction and shape of the fitted curve.", "data": [{"molecular_target": "Beta-lactamase (Escherichia coli (strain K12)) (UniProt P00811)", "sequence (P00811 whole entry, looked up)": "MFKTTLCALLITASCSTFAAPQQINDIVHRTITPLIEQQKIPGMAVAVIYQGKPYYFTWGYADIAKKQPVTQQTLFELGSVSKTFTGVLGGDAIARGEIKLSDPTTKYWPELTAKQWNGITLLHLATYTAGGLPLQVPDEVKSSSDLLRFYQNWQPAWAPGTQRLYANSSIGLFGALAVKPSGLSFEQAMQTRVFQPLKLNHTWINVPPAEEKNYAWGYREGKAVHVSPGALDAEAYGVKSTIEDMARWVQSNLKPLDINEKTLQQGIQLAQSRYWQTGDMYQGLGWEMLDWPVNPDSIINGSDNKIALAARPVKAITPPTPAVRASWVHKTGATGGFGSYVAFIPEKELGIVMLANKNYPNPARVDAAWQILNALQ", "experiment": "qHTS Inhibitors of AmpC Beta-Lactamase (assay without detergent); note: nearly all actives have a fitted effect of over 20% in size", "details": "AmpC nitrocefin hydrolysis, absorbance 480 nm, 0.0001% Triton; activity change, negative = inhibition: at 57.1 µM (top of the series) unless noted", "outline": "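20 mM phosphate pH 7.0 + 0.01% (detergent screen) or 0.0001% Triton X-100; 5.3 nM AmpC reagent; cpd preinc 15 min RT; nitrocefin (800 uM stock) to start; A480 q20 s × 4 min; Activity was normalised to no-enzyme and no-compound control wells.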", "values": [{"smiles": "Cc1ccc(C)c(NS(=O)(=O)c2ccc3c(c2)Cc2cc(S(=O)(=O)Nc4cc(C)ccc4C)ccc2-3)c1", "Potency": "active: 7.94 µM"}, {"smiles": "Cc1nc(NC(=O)c2cccc(Cl)c2)sc1-c1csc(Nc2cccc(Cl)c2)n1", "Potency": "inconclusive: 35.5 µM [inhibitor, single point]"}, {"smiles": "Cn1cc(S(=O)(=O)N2CCN(c3ccc(F)cc3)CC2)c(=O)n(C)c1=O", "Potency": "inconclusive: 11.2 µM [inhibitor, full curve, poor fit]"}, {"smiles": "CC(C)c1ccc(N=c2c([N+](=O)[O-])nn(-c3ccc4c(c3)OCCO4)n2O)cc1", "Potency": "inconclusive: 17.8 µM [inhibitor, partial curve]"}, {"smiles": "O=C(CSc1ncnc2scc(-c3ccccc3)c12)NCc1ccc2c(c1)OCO2", "Potency": "inconclusive: 35.5 µM [inhibitor, single point]"}, {"smiles": "Cc1nc(-c2ccccc2)nc2[nH]c(C(C)C)cc(=O)c12", "Potency": "inconclusive: 6.31 µM [inhibitor, single point]"}, {"smiles": "CC1=CCC2C(=O)N(c3ccc4ccccc4n3)C(=O)C2C1", "note": "(stereo unspecified)", "Potency": "active: 0.141 µM"}, {"smiles": "CCN(C(=O)COC(=O)c1cc(=O)[nH]c2ccccc12)C1CCS(=O)(=O)C1", "note": "(stereo unspecified)", "activity change, negative = inhibition": "inactive: 5.29%"}, {"smiles": "Cc1ccc(NC(=O)CSC2=C(C#N)C(c3ccco3)C3=C(CC(C)(C)CC3=O)N2)cc1", "note": "(stereo unspecified)", "Potency": "inconclusive: 3.98 µM [inhibitor, single point]"}, {"smiles": "CCOC(=O)C(=O)/C(=C\\N(C)C)c1onc(-c2c(F)cccc2Cl)c1C(=O)OC", "Potency": "inconclusive: 0.141 µM [inhibitor, full curve, poor fit]"}, {"smiles": "O=C(N/C(=C/c1ccco1)C(=O)N1CCCCC1)c1cccs1", "Potency": "inconclusive: 0.141 µM [inhibitor, full curve, poor fit]"}, {"smiles": "CC(C)OC(=O)c1nnc(-c2ccccc2)nc1OC(C)C", "Potency": "inconclusive: 5.01 µM [inhibitor, single point]"}, {"smiles": "COc1cccc(NC(=O)Nc2cccs2)c1", "Potency": "inconclusive: 20 µM [inhibitor, partial curve]"}, {"smiles": "Cc1cc(C)c2c(=O)n(CC(=O)Nc3cccc(F)c3)sc2n1", "Potency": "inconclusive: 15.8 µM [inhibitor, partial curve]"}, {"smiles": "Cc1nn(CC(C)C)c(Cl)c1C(=O)NC1CCC(C)CC1", "note": "(stereo unspecified)", "Potency": "inconclusive: 39.8 µM [inhibitor, single point]"}, {"smiles": "O=C(Nc1nc(-c2ccc(S(=O)(=O)N3CCCCCC3)cc2)cs1)c1cccs1", "Potency": "inconclusive: 3.16 µM [inhibitor, single point]"}, {"smiles": "O=S(=O)(NC1CCC(CNS(=O)(=O)c2c(F)cccc2F)CC1)c1ccc2c(c1)OCCO2", "note": "(stereo unspecified)", "activity change, negative = inhibition": "inactive: -35.4%"}, {"smiles": "O=C(CSCc1nc2c(nnn2Cc2ccc(F)cc2)c(=O)[nH]1)Nc1c(Cl)cc(Cl)cc1Cl", "Potency": "inconclusive: 39.8 µM [inhibitor, single point]"}, {"smiles": "CCOc1ncccc1C(=O)OCC(=O)Nc1ccc(-c2nc3ccc(C)cc3s2)cc1", "Potency": "inconclusive: 39.8 µM [inhibitor, single point]"}, {"smiles": "CC(OC(=O)/C(C#N)=C/c1ccco1)C(=O)N(C)c1ccccc1", "note": "(stereo unspecified)", "activity change, negative = inhibition": "inactive: -10.2%"}, {"smiles": "Cc1ccc2nc(SCc3ccc([N+](=O)[O-])cc3)nc(C)c2c1", "activity change, negative = inhibition": "inactive: -16.1%"}, {"smiles": "CCC1(c2ccccc2)NC(=O)N(CC(=O)NNC(=O)CCN2CCN(c3ccccc3)CC2)C1=O", "note": "(stereo unspecified)", "Potency": "inconclusive: 39.8 µM [inhibitor, single point]"}, {"smiles": "CC1=NN(c2ccccc2)C(=O)/C1=C\\c1ccc(Oc2ccc([N+](=O)[O-])cc2[N+](=O)[O-])cc1", "Potency": "inconclusive: 35.5 µM [inhibitor, single point]"}, {"smiles": "COc1ccccc1N1CCN(C(=O)c2cc(S(=O)(=O)N3CCCCC3)ccc2C)CC1", "activity change, negative = inhibition": "inactive: 285%"}, {"smiles": "O=C(N/N=C/c1ccccc1)c1ccc(CN2C(=O)c3cccc4cccc2c34)cc1", "Potency": "inconclusive: 11.2 µM [inhibitor, partial curve]"}, {"smiles": "Cc1ccc(S(=O)(=O)C2(C(=O)Nc3cccnc3)CC2)cc1", "Potency": "inconclusive: 39.8 µM [inhibitor, partial curve, poor fit]"}, {"smiles": "CC1CCN(C(=O)c2ccc(NC(=O)CC3SC(N4CCCC4)=NC3=O)cc2)CC1", "note": "(stereo unspecified)", "Potency": "inconclusive: 35.5 µM [inhibitor, single point]"}, {"smiles": "CCCCCc1nnc(NC(=O)Cc2cccs2)s1", "Potency": "inconclusive: 0.141 µM [inhibitor, full curve, poor fit]"}, {"smiles": "Brc1ccccc1-c1nnc(SCc2nc3ccccc3s2)o1", "Potency": "inconclusive: 28.2 µM [inhibitor, single point]"}, {"smiles": "Oc1ccc(C2C(c3ccccc3)=NN=C(c3ccccc3F)N2O)c(O)c1", "note": "(stereo unspecified)", "Potency": "inconclusive: 7.94 µM [inhibitor, partial curve, poor fit]"}, {"smiles": "CCOC(=O)/C=c1\\s/c(=C\\c2ccc(-c3ccccc3)cc2)c(=O)n1CC(=O)NCc1ccc2c(c1)OCO2", "Potency": "inconclusive: 39.8 µM [inhibitor, single point]"}, {"smiles": "CC(C)NC(=O)Nc1cccs1", "activity change, negative = inhibition": "inactive: -8.57%"}, {"smiles": "CSc1cccc(N2CC(C(=O)N(CC(C)C)c3c(N)n(Cc4ccccc4)c(=O)[nH]c3=O)CC2=O)c1", "note": "(stereo unspecified)", "Potency": "inconclusive: 31.6 µM [inhibitor, single point]"}, {"smiles": "Cc1cc(C)cc(C(=O)N2CCC(C(N)=O)CC2)c1", "activity change, negative = inhibition": "inactive: -7.87%"}, {"smiles": "CSc1ccc(S(=O)(=O)Nc2cccc(F)c2)cc1", "Potency": "active: 0.251 µM"}, {"smiles": "COCCCNc1oc(-c2ccccc2OC)nc1C#N", "Potency": "inconclusive: 8.91 µM [inhibitor, single point]"}, {"smiles": "Cc1ccc2[nH]c(=O)c(CN(Cc3cccs3)S(=O)(=O)c3ccc4c(c3)OCCO4)cc2c1", "activity change, negative = inhibition": "inactive: -26.9%"}, {"smiles": "COc1cc(-c2nn3c(-c4ccco4)nnc3s2)cc(OC)c1OC", "activity change, negative = inhibition": "inactive: -9.63%"}, {"smiles": "CN(C)C(CNS(=O)(=O)c1ccc(Cl)cc1)c1cccnc1", "note": "(stereo unspecified)", "Potency": "inconclusive: 1.58 µM [inhibitor, full curve, poor fit]"}, {"smiles": "C=CCOc1ccc(C(c2c(C(=O)O)[nH]c3ccccc23)c2c(C(=O)O)[nH]c3ccccc23)cc1", "Potency": "active: 22.4 µM"}, {"smiles": "Cc1ccc(NC(=O)CN(c2ccc(C)cc2)S(=O)(=O)c2cccc3nonc23)cc1", "Potency": "inconclusive: 39.8 µM [inhibitor, single point]"}]}]}
